# Reference: PubChem BioAssay AID504339 (National Center for Advancing Translational Sciences (NCATS), 2011)
# Screen size: about 390,000 compounds; about 17,000 (4.4%) were called active. The shares of active, inactive and inconclusive entries below differ from those in the screen. The call rests on the fitted dose curve; in most records, active means well fitted inhibition curve with a large enough effect; inconclusive means small, poorly fitted or top-dose-only effect; inactive means no such curve, though single readings can be large or run the other way. Where the call is inconclusive, the potency comes from a doubtful curve fit.
# Target: Lysine-specific demethylase 4A (Homo sapiens) (UniProt O75164)
# Chain of UniProt O75164 (O75164 whole entry, looked up, the tested form may be a part): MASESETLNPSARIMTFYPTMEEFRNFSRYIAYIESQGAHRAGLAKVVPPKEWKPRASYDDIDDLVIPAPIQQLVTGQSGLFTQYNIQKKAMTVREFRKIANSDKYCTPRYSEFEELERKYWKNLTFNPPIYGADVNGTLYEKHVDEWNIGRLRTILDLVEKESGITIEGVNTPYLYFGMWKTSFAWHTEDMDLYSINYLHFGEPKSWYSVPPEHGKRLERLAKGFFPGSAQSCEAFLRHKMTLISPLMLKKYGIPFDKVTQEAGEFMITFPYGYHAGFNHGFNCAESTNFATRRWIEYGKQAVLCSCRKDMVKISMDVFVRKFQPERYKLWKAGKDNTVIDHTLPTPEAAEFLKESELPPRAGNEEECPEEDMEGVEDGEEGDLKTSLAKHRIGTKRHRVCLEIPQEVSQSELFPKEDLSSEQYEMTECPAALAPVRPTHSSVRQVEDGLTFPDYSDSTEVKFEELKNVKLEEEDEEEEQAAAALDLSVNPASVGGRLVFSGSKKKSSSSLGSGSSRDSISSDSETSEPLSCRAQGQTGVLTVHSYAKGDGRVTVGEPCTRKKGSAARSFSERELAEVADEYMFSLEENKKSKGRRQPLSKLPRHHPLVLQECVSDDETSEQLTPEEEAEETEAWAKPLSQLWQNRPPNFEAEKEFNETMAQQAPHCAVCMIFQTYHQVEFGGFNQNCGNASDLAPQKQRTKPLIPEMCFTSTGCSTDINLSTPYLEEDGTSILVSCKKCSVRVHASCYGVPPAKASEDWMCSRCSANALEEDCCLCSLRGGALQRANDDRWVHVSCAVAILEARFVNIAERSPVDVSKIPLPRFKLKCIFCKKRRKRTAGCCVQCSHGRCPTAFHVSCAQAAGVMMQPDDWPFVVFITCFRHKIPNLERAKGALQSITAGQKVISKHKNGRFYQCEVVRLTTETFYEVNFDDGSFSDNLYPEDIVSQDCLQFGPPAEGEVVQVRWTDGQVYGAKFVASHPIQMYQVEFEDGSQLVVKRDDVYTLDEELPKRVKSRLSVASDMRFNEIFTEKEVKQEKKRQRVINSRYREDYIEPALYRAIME
# Assay: qHTS Assay for Inhibitors of JMJD2A-Tudor Domain; further: nearly all actives have a fitted effect of over 50% in size
# Settings: AlphaScreen JMJD2A-Tudor / H3K4me3 peptide binding; activity change, negative = inhibition: at 114 µM (top of the series)
# On the % scale 0 is the no-effect control and ±100 the full control effect; potency means the concentration at half of the fitted maximal effect; tags describe the fitted curve by direction and shape.
SMILES,"activity change, negative = inhibition",Potency
Cc1cc(SCC(=O)N2CCCC2)nc2ccccc12,inactive: -2.26%,
Cc1ccc(NC(=O)c2ccccc2OCC(=O)Nc2ccccc2F)cc1S(=O)(=O)N(C)C,inactive: -17.9%,
Cc1cccc(C(=O)NCCC(=O)NCc2ccccc2F)c1,inactive: 5.41%,
CCOc1ccccc1N=Cc1c(O)c2ccccc2oc1=O,inactive: -17.6%,
CCOC(=O)c1c(-c2ccc(-c3ccccc3)cc2)csc1NC(=O)CCC(=O)O,,"inconclusive: 63.1 µM [inhibitor, partial curve]"
O=C(NCCc1ccccc1)C1CCN(Cc2ccccc2F)CC1,,active: 2.51 µM
Cn1c(=O)c2c(nc(N3CCN(c4ccccn4)CC3)n2Cc2ccccc2Cl)n(C)c1=O,,"inconclusive: 56.2 µM [inhibitor, partial curve]"
Cc1ccc(S(=O)(=O)c2nc(C(C)(C)C)oc2N2CCOCC2)cc1,,active: 35.5 µM
CC1(C)CC(=O)C(C(C2=C(O)CC(C)(C)CC2=O)c2cccs2)C(=O)C1 (centres undefined),inactive: -18.8%,
Cc1ccc(NS(=O)(=O)c2ccc3[nH]c4c(c3c2)CCCCC4)cc1,,"inconclusive: 39.8 µM [inhibitor, partial curve]"
CCC(=O)Nc1nc(C)c(-c2csc(Nc3ccccn3)n2)s1,,"inconclusive: 56.2 µM [inhibitor, partial curve]"
O=C1C2C(c3ccccc3)C=CC(c3ccccc3)C2C(=O)N1CCO (centres undefined),inactive: -9.95%,
Cc1ccc(CN2CCN(CC(=O)NCc3ccccc3)CC2)cc1,inactive: -11.6%,
O=C(COc1cc(F)ccc1[N+](=O)[O-])N1N=C(c2cccs2)CC1c1ccco1 (centres undefined),,"inconclusive: 22.4 µM [inhibitor, partial curve]"
CC(=O)N1CCc2cc(S(=O)(=O)N3CCN(c4ccc(C)cc4)C(C)C3)ccc21 (centres undefined),inactive: -14.7%,
CCc1ccc(OCC(=O)Nc2ccc(Cl)c(-c3nc4ncccc4o3)c2)cc1,inactive: -14.4%,
CCC(=O)Nc1cccc(C(=O)/C=C/c2cc(Br)ccc2OC)c1,,"inconclusive: 25.1 µM [inhibitor, full curve, poor fit]"
COCC(=O)OCC(=O)c1cc(C)n(-c2ccc(Br)cc2)c1C,,"inconclusive: 15.8 µM [inhibitor, full curve]"
Cn1c(SCC(=O)NCc2cccs2)nnc1-c1ccc(O)cc1,,"inconclusive: 25.1 µM [inhibitor, single point]"
CCOc1c(OC(C)=O)ccc(/C=C/c2ccc3cccc(OC(C)=O)c3n2)c1[N+](=O)[O-],,"inconclusive: 50.1 µM [inhibitor, partial curve]"
O=C(Nc1ccc(Cl)c([N+](=O)[O-])c1)c1cnccn1,,"inconclusive: 50.1 µM [inhibitor, partial curve]"
Cc1ccccc1S(=O)(=O)Cc1ccc(C(=O)NCc2ccco2)o1,,active: 15.8 µM
COc1cccc(C(=O)NC(=S)Nc2ccccc2N2CCCCC2)c1,,"inconclusive: 20 µM [inhibitor, partial curve]"
Cc1ccc2c(CC(=O)OCC(=O)N(CC(C)C)c3c(N)n(Cc4ccccc4)c(=O)[nH]c3=O)coc2c1,,"inconclusive: 44.7 µM [inhibitor, partial curve]"
Cc1c(CNCCCc2ccccc2)c(C(=O)O)c(C)n1Cc1cccc(Cl)c1,,"inconclusive: 50.1 µM [inhibitor, partial curve]"

SMILES,"activity change, negative = inhibition",Potency
O=C(O)CN1c2cccc3cccc(c23)S1(=O)=O,,"inconclusive: 44.7 µM [inhibitor, partial curve]"
Cc1ccc(-n2cnc3cc(C(=O)NC4CCCCCC4)ccc32)cc1Cl,,"inconclusive: 50.1 µM [inhibitor, full curve, poor fit]"
O=C(Oc1c(CN2CCOCC2)cc(Cl)c2cccnc12)c1cccs1,,"inconclusive: 56.2 µM [inhibitor, partial curve, poor fit]"
CCCC12CN3CC(C)(CN(C1)C3c1ccc([N+](=O)[O-])o1)C2=O (centres undefined),,"inconclusive: 89.1 µM [inhibitor, single point]"
Cc1ccc(C2C(C#N)=C(N)Oc3n[nH]c(-c4ccccc4)c32)o1 (centres undefined),,active: 15.8 µM
N#CCCn1cc(CNCc2cccnc2)c(-c2ccccc2)n1,,active: 8.91 µM
O=C(NCc1ccccc1)NC1CC2CCC(C1)N2Cc1ccco1 (centres undefined),inactive: -12%,
COC(=O)c1c(C)sc(-c2c(-c3ccc4c(c3)OCCO4)[nH]c3c2c(=O)[nH]c(=O)n3C)c1O,inactive: -13.9%,
CC(C(=O)O)N(c1ccccc1Cl)S(C)(=O)=O (centres undefined),inactive: -16.9%,
CCn1cc(C(=O)O)c(=O)c2cc(Br)ccc21,,"inconclusive: 15.8 µM [inhibitor, full curve]"
O=C(CSc1nncs1)Nc1cc(S(=O)(=O)N2CCOCC2)ccc1N1CCCC1,inactive: -4.05%,
Cc1ccc(CC(=O)Nc2ccc(F)c([N+](=O)[O-])c2)cc1C,inactive: -12.1%,
COc1ccccc1-c1nnc(NC(=O)c2ccccc2F)o1,,"inconclusive: 89.1 µM [inhibitor, single point]"
O=[N+]([O-])c1ccc(NC(=S)NCc2ccc(F)cc2)cc1,,"inconclusive: 39.8 µM [inhibitor, full curve, poor fit]"
COc1ccc(/C=C2\Sc3ccc(C(=O)NCCN4CCCCCC4)cc3N(C)C2=O)cc1,,"inconclusive: 35.5 µM [inhibitor, partial curve]"
Cc1cc(C)c(-n2[nH]nnc2=S)c(C)c1,,active: 31.6 µM
Cc1ccc(-c2cc(C(=O)N3CCC(C)CC3)c3ccccc3n2)cc1,inactive: -0.962%,
NC(=O)/C=C\C(=O)Nc1cccc(C(F)(F)F)c1,inactive: -12.5%,
Cc1[nH]n(-c2ccccc2)c(=O)c1N=Nc1ccc2c(c1)OCO2,,"inconclusive: 2.24 µM [inhibitor, full curve]"
COc1cccc(NC(=O)c2cccc(S(=O)(=O)N3CCN(Cc4ccccc4)CC3)c2)c1,,"inconclusive: 11.2 µM [inhibitor, full curve]"
O=S(=O)(O)c1cc2onnc2c2ccccc12,,active: 50.1 µM
COc1cccc(NC(=O)[C@H](CC(C)C)NC(=O)[C@@H]2Cc3ccccc3CN2)c1,,active: 79.4 µM
Oc1cccc(C2c3[nH]c4ccccc4c3CCN2Cc2cnn(-c3ccccc3)c2)c1 (centres undefined),,"inconclusive: 50.1 µM [inhibitor, partial curve]"
COc1ccccc1NC(=O)c1ccc(NC(=O)CSc2nnnn2C)cc1,,"inconclusive: 79.4 µM [inhibitor, partial curve]"
CCOc1ccccc1N1CC(c2nc3ccccc3n2CCCCOc2cc(C)ccc2C)CC1=O (centres undefined),,"inconclusive: 44.7 µM [inhibitor, partial curve]"

SMILES,"activity change, negative = inhibition",Potency
CN(C)c1ccc(CNC(=O)c2ccc3c(c2)N(C)C(=O)C2CCCCN32)cc1 (centres undefined),,active: 44.7 µM
CCCOc1ccc(CSc2nnc(CCC)n2N)cc1,inactive: -9.81%,
O=C(O)COc1cccc(/C=C2/SC(=S)N(Cc3ccccc3)C2=O)c1,,active: 50.1 µM
COc1cccc(C(=O)NCC(c2ccc3c(c2)OCO3)N2CCN(c3ccc(F)cc3)CC2)c1 (centres undefined),,"inconclusive: 25.1 µM [inhibitor, full curve]"
CCC(=O)N/C(=N/c1nc(C)cc(C)n1)Nc1ccc(OC)cc1,inactive: -0.629%,
CCCOc1ccccc1-c1nc2n[nH]nc2c(=O)[nH]1,inactive: -0.719%,
CCn1cc(/C=N/NC(=O)COc2cccc3cccnc23)c2ccccc21,,"inconclusive: 44.7 µM [inhibitor, single point]"
O=C(NCCc1ccccc1)c1ccc(CSc2nc3ccncc3n2Cc2cccc(F)c2)cc1,inactive: -19.5%,
COc1ccccc1NC(=O)N1CCCC1C(=O)Nc1nnc(C(C)C)s1 (centres undefined),inactive: -24.2%,
CCc1ccc(NC(=O)C2CCN(S(=O)(=O)c3c(C)noc3/C=C\c3ccc(OC)cc3)CC2)cc1,inactive: -3.67%,
OC(COCc1cccs1)CN1CCN(c2cccc(Cl)c2)CC1 (centres undefined),,active: 2.82 µM
COc1ccc(-c2nn(-c3ccccc3)cc2/C=N/NC(N)=S)cc1OC,,"inconclusive: 56.2 µM [inhibitor, partial curve]"
CCCN1C(=O)/C(=c2\sc3nc(=O)c(Cc4ccc(C)cc4)nn3c2=O)c2ccccc21,,"inconclusive: 5.01 µM [inhibitor, full curve, poor fit]"
Cc1ccccc1OCCNc1ccc(C(F)(F)F)cc1[N+](=O)[O-],,"inconclusive: 14.1 µM [inhibitor, full curve, poor fit]"
Cc1nnc(SCCN2CCOCC2)n1C,,active: 1 µM
Cc1cc(C)c(S(=O)(=O)Nc2ccc(N(C)C)cc2)c(C)c1-n1cnnn1,,"inconclusive: 56.2 µM [inhibitor, partial curve]"
COc1cccc(CC(=O)Nc2ccc3c(c2)OC2(CCCC2)O3)c1,,"inconclusive: 28.2 µM [inhibitor, full curve, poor fit]"
COCCn1c(C)cc(C2=NNC(=Nc3ccccc3F)SC2)c1C,,active: 89.1 µM
COc1ccc(-c2c(-c3ccc(OC)c(F)c3)c3ccccc3n2C)cc1,,"inconclusive: 31.6 µM [inhibitor, full curve, poor fit]"
Nc1nc(SC2c3cccc4cccc(c34)C2NS(=O)(=O)c2ccccc2)n[nH]1 (centres undefined),inactive: -22.3% [at 57.1 µM],
FC(F)(F)c1ccc2c(c1)C1C=CCC1C(c1ccncc1)N2 (centres undefined),,"inconclusive: 44.7 µM [inhibitor, partial curve]"
CCN(CC)CCOCCOc1ccc(Cl)c2ccccc12,,active: 25.1 µM
Cc1nnc(N2C(=O)C(=O)/C(=C(/O)c3ccc4c(c3)CC(C)O4)C2c2ccccc2F)s1 (centres undefined),,"inconclusive: 89.1 µM [inhibitor, partial curve]"
COc1cc(/C=C(\CC(=O)O)c2nc3ccccc3s2)ccc1OCC(=O)Nc1ccccc1F,,"inconclusive: 89.1 µM [inhibitor, single point]"
